Source: article PMC11725581, “Developing novel Lin28 inhibitors by computer aided drug design” (Cell Death Discovery, 2025)
Read-outs that look alike come from different tables or passages of the source.

Assays:
[1] = system: Lin28b-positive DuNE cells; conditions: for concentration at which dose-dependent inhibition of cell growth starts / inhibitory effect on DuNE cell growth: 2D conditions
[2] = system: Lin28b-positive DuNE cells; experiment: cells

Structure (SMILES) | concentration at which dose-dependent inhibition of cell growth starts ([1]; DuNE cells) [µM] | IC50 [2] [nM] | inhibitory effect on DuNE cell growth [1] | other results
O[As](O)O [ARS, arsenite, reference compound] |  |  |  | IC50 [1]: 2730 nM
O=c1[nH]c(Nc2ccccc2O)cs1 [Ln15] | 5 |  |  | 
COc1cc([C@@H]2c3cc4c(cc3[C@@H](O[C@@H]3O[C@@H]5CO[C@@H](C)O[C@H]5[C@H](O)[C@H]3O)[C@H]3COC(=O)[C@H]23)OCO4)cc(OC)c1O [Etoposide, etoposide, reference compound] |  | 543 |  | 
N.N.[Cl][Pt][Cl] [Cisplatin, cisplatin, reference compound] |  |  |  | IC50 ([1]; DuNE cells, single agents (Figure S5)): 1520 nM
O=c1[nH]c(Nc2ccc(F)cc2O)cs1 [Ln268] | 5 | 6290 | stronger suppressive effects than Ln15 | cell proliferation, DuNE ([1]; Lin28b-positive DuNE cells): strongly inhibited cell proliferation
CC(=O)N(C)c1cccc(-c2ccc3nnc(C)n3n2)c1 [C1632, reference compound] |  |  | no inhibitory effects at concentrations below 100 μM | 
